Out of some 110,000 compounds screened, about 230 (0.21%) showed an effect of 50% or more. The list shows a part of the results.
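Also: 30 min substrate incubation versus DMSO and 10 µM JCP410 controls.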

The target of this assay is DPAP1 (Plasmodium falciparum, UniProt Q8IIJ9). Briefly: primary screen, percent inhibition; read by cleavage of a fluorogenic dipeptide substrate; higher = more effect of the substance. The arrangement: species or system P. falciparum D10 trophozoite lysates; single well.
Chain of DPAP1 (Q8IIJ9 whole entry, looked up): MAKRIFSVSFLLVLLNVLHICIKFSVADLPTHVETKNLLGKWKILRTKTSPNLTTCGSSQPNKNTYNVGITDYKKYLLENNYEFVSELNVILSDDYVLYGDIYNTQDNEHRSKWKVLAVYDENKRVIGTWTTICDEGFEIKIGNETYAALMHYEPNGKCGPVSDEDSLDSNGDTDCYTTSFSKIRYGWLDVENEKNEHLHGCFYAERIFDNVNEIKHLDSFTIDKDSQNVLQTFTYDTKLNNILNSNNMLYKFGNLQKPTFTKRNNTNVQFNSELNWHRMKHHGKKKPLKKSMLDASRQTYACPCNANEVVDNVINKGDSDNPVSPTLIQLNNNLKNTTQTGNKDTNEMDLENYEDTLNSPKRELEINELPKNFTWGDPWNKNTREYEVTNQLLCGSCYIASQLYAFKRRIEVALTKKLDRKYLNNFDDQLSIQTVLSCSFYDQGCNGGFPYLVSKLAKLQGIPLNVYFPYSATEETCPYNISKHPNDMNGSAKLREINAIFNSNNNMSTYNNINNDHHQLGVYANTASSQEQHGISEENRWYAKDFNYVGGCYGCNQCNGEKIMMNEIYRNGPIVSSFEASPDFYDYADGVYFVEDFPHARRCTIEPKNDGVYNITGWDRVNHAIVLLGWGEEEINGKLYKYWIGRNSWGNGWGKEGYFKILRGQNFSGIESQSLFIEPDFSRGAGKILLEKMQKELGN
Consider `Cc1cc(C(F)(F)F)nc(O)n1`, for which the “% Inhibition @ 10 uM” value is listed as -1.85%.

For the compound `COc1ccc(CN2C(=O)c3cccnc3C2=O)cc1S(=O)(=O)NCCc1ccc(Cl)cc1`, the “% Inhibition @ 10 uM” value is reported as 0.533%.

Take `CCOc1ccc(CNS(=O)(=O)c2ccc3[nH]c4c(c3c2)CCCCC4)cc1`: the “% Inhibition @ 10 uM” value is recorded as 2.01%.

As for `CC1CCN(C(=O)c2cc(Cl)nc3ccccc23)CC1`, the “% Inhibition @ 10 uM” value is on record as -5.88%.

`O=C(CN1CCCC1)Nc1c2c(cc3c1CCC3)CCC2`: the “% Inhibition @ 10 uM” value was -1.17%.

`COCc1cc(C)n(CC(=O)Nc2ccc(OC)cc2)c(=O)c1C#N`: the “% Inhibition @ 10 uM” value is given as 0.726%.

In the case of `CCCC(O)(CCN(C)C)c1ccc(OC)cc1` (centres unmarked), the “% Inhibition @ 10 uM” value stood at 1.2%.

In the case of `CCCNC(=O)CCCn1nc(C)c2c(C)n(-c3ccc(C)cc3)nc2c1=O`, the “% Inhibition @ 10 uM” value was -10.2%.

Take `CCOC(=O)c1c(S(=O)(=O)NCCc2ccc(OC)c(OC)c2)c(C)n(C)c1C`: the “% Inhibition @ 10 uM” value was -0.349%.

As for `CC[C@H](NC(=O)[C@@H](CS(=O)(=O)Cc1ccccc1)NC(=O)N1CCOCC1)C(=O)c1ncco1`, the “% Inhibition @ 10 uM” value is listed as -3.49%.

As for `O=S(=O)(c1ccc2ocnc2c1)c1ccc2ocnc2c1`, the “% Inhibition @ 10 uM” value is reported as -1.98%.

As to `CCOC(=O)C1CCN(c2ccccn2)CC1`, the “% Inhibition @ 10 uM” value was -8.19%.

On to `CC1(C)CC2=Nc3nc(O)nc(O)c3C(c3ccc(O)cc3)C2=C(O)C1` (centres unmarked), for which the “% Inhibition @ 10 uM” value came out at 6.82%.

As for `N#Cc1cccc(Oc2ccc(-c3nc4ccccc4nc3-c3ccccc3)cc2)c1C#N`, the “% Inhibition @ 10 uM” value came out at 9.31%.

Regarding `CS(=O)(=O)N(CC(=O)N1CCc2ccccc2C1)c1cccc2ccccc12`, the “% Inhibition @ 10 uM” value is on record as -3.46%.

Consider `COc1ccccc1OCc1nc2ccccc2n1Cc1ccccc1`, for which the “% Inhibition @ 10 uM” value is recorded as -3.28%.

`O=C(Cc1coc2ccc3ccccc3c12)Nc1ccc(Cl)cn1`: the “% Inhibition @ 10 uM” value is recorded as -1.11%.

On to `CCCOc1ccc(C2C(C(=O)OCC)=CN(C(C)C)C=C2C(=O)OCC)cc1`, for which the “% Inhibition @ 10 uM” value is -3.23%.

As for `O=C(NCCCn1c2ccccc2c2ccccc21)NC12CC3CC(CC(C3)C1)C2`, the “% Inhibition @ 10 uM” value is reported as -3.34%.

Take `Cc1nn(C)c(C)c1NC(=O)CC12CC3CC(CC(C3)C1)C2`: the “% Inhibition @ 10 uM” value was 1.32%.

For `C/C(CCC1CC(C)(C)OC1=O)=N\NC(N)=S` (centres unmarked), the “% Inhibition @ 10 uM” value is -3.4%.

Regarding `O=C(/C=C/c1ccco1)N1CCN(c2ccc(F)cc2)CC1`, the “% Inhibition @ 10 uM” value came to 2.16%.

Turning to `Cc1ccc(NC(=O)c2ccc(Cl)cc2Cl)cc1Cl`, the “% Inhibition @ 10 uM” value is 2.22%.

`CS(=O)(=O)c1ccc2nc(NC(=O)CCCN3C(=O)c4cccc5cccc(c45)C3=O)sc2c1`: the “% Inhibition @ 10 uM” value was -0.305%.

For `NC(=O)Cn1cnc(-c2ccc(F)cc2)c1`, the “% Inhibition @ 10 uM” value was -5.51%.

`CC(=O)N(C)c1ccc(NC(=O)C(C)Oc2ccc(Cl)cc2Cl)cc1` (centres unmarked): the “% Inhibition @ 10 uM” value is reported as -5.95%.

As for `Oc1nncc2c1[nH]c1ccccc12`, the “% Inhibition @ 10 uM” value is -5.37%.

Consider `COCc1cc(O)nc(SCC(=O)Nc2ccc(Cl)c(Cl)c2)n1`, for which the “% Inhibition @ 10 uM” value was -2.86%.

For `Cc1cc(NC(=O)CSc2nc3c(c(C(F)(F)F)n2)CCc2ccccc2-3)no1`, the “% Inhibition @ 10 uM” value is given as -1.72%.

Turning to `NC(=O)C1CCN(C(=O)c2cnn3c(C(F)F)cc(-c4ccccc4)nc23)CC1`, the “% Inhibition @ 10 uM” value was -3.69%.

In the case of `CCC1CCCCN1CCCNC(=O)Cn1ncc2c1-c1cc(C)ccc1OC2` (centres unmarked), the “% Inhibition @ 10 uM” value is -6.07%.

As to `NC1=NN=C(c2ccccc2)CS1`, the “% Inhibition @ 10 uM” value is on record as 6.15%.

On to `Cc1c(C(=O)OC(C)C)sc(NC(=O)C2c3ccccc3Oc3ccccc32)c1C#N`, for which the “% Inhibition @ 10 uM” value was -6.78%.

With `COc1ccc(C(=O)Nc2nc(N3C(=O)c4ccccc4C3=O)n(-c3ccccc3)n2)cc1`, the “% Inhibition @ 10 uM” value is on record as -0.386%.

With `CC1CC(C)CN(C(=O)C2CCCN(c3nnc(N4CCCC4=O)s3)C2)C1` (centres unmarked), the “% Inhibition @ 10 uM” value is -1.08%.

As to `CCOC(=O)c1cnc(SCC(=O)N2CCOCC2)nc1N`, the “% Inhibition @ 10 uM” value was 2.21%.

As to `COC(=O)c1c(NC(=O)C2Cc3ccc(C)cc3C(=O)O2)sc2c1CCCC2` (centres unmarked), the “% Inhibition @ 10 uM” value amounted to 0.221%.

Turning to `Cc1ccc(OCC(=O)Nc2ccc(Cl)c(Cl)c2)cc1`, the “% Inhibition @ 10 uM” value is 7.22%.

As for `CC(=O)c1ccc(N2CCN(Cc3[nH]cnc3C)CC2)cc1`, the “% Inhibition @ 10 uM” value was determined as 0.472%.

In the case of `O=C(c1cc2c(Cl)nc3ccccc3c2s1)N(Cc1ccco1)CC1CCCO1` (centres unmarked), the “% Inhibition @ 10 uM” value came to 2.5%.

For the compound `COc1ccc(OC)c2nc(O)c(CCNS(=O)(=O)c3ccc(F)cc3)cc12`, the “% Inhibition @ 10 uM” value is listed as 0.205%.

Consider `CC(C)C[C@H](NC(=O)c1ccc(OCCc2ccccn2)cc1)C(=O)NCC#N`, for which the “% Inhibition @ 10 uM” value amounted to 7.72%.

For `COc1cc(C2C(C(=O)c3ccc(C)cc3)=C(O)C(=O)N2CCN2CCOCC2)ccc1O` (centres unmarked), the “% Inhibition @ 10 uM” value stood at 3.13%.

`O=S(=O)(Nc1ccccc1-c1ccccc1)c1ccc2c(c1)OCCO2`: the “% Inhibition @ 10 uM” value was 2.95%.

Consider `COc1ccc(C2=NN(C(=O)CCC(=O)O)C(c3ccc(Br)cc3)C2)cc1` (centres unmarked), for which the “% Inhibition @ 10 uM” value is -4.49%.

For `CCc1nnc(NC(=O)CSc2nc(N)nc(SC)c2C#N)s1`, the “% Inhibition @ 10 uM” value is -1.68%.

On to `CC(=O)N1CCc2c(sc3c2c(=O)n(CCc2ccccc2)c(=O)n3Cc2ccccc2Cl)C1`, for which the “% Inhibition @ 10 uM” value is listed as 3.32%.

For the compound `CCCCSc1nnc2c(n1)OC(c1ccc(C(C)(C)C)cc1)Nc1ccccc1-2` (centres unmarked), the “% Inhibition @ 10 uM” value worked out at 1.4%.

Regarding `Cc1ccc(-c2nnn3c2nc(NCc2ccco2)c2ccccc23)cc1`, the “% Inhibition @ 10 uM” value is 2.04%.

As to `Nc1ncnc2c1ncn2CCNCCc1ccccc1`, the “% Inhibition @ 10 uM” value was -3.33%.

As to `CCc1cccc(CC)c1NC(=O)CSc1nc(C)cc(O)n1`, the “% Inhibition @ 10 uM” value turned out to be 2.48%.

As for `O=C(Nc1ccc2c(c1)OCCO2)C(F)(F)C(F)(F)C(=O)Nc1ccc2c(c1)OCCO2`, the “% Inhibition @ 10 uM” value was -6.48%.

`COc1ccc(OC)c(NS(=O)(=O)c2ccc3c(c2)OCCO3)c1`: the “% Inhibition @ 10 uM” value is on record as -8%.

For the compound `CCc1ccc(-c2cc3c(=O)n(CC(=O)NCc4ccc(OC(C)C)cc4)nc(C)n3n2)cc1`, the “% Inhibition @ 10 uM” value is -1.08%.

For `CC(C)Oc1ccc(CC2CCC(=O)N(C)C2=O)cc1` (centres unmarked), the “% Inhibition @ 10 uM” value turned out to be 2.51%.

Take `CC1CCN(S(=O)(=O)c2cccc(C(=O)O)c2)CC1`: the “% Inhibition @ 10 uM” value is -1.22%.

Consider `Cc1c(C(c2cccc(O)c2)c2c(C)n(C)n(-c3ccccc3)c2=O)c(=O)n(-c2ccccc2)n1C`, for which the “% Inhibition @ 10 uM” value worked out at 5.03%.

`Cc1nc(-n2cccc2)sc1C(=O)NCc1ccccc1`: the “% Inhibition @ 10 uM” value was 1.03%.

Consider `Cn1c2c(c(=O)[nH]c1=O)C(c1ccc(Br)cc1)C1=C(O)c3ccccc3C1=N2` (centres unmarked), for which the “% Inhibition @ 10 uM” value came out at 7.1%.

Take `CC[C@@H](C)[C@H](NC(=O)c1cccc(NC(=O)OC(C)(C)C)c1)C(=O)N[C@@H](CCc1ccccc1)C(=O)COCc1ccccc1`: the “% Inhibition @ 10 uM” value is reported as -7.36%.

As to `CCN1CCN(c2ncnc3c2nnn3Cc2ccccc2)CC1`, the “% Inhibition @ 10 uM” value is -2.63%.

As for `CCCN(CCC)C(=O)C1=C(C)C(=O)OC12CCC(C)CC2` (centres unmarked), the “% Inhibition @ 10 uM” value was -1.89%.

These data come from publication PMC6919601, “Identification of Plasmodium dipeptidyl aminopeptidase allosteric inhibitors by high throughput screening” (PLoS ONE, 2019).
